# Experimental data: the supplement of paper PMC8728848
# Some of the results follow.
# How the values were obtained:
# Assay in all cases: glycan array binding signal (z-score within array); higher = stronger binding
# Details in all cases: glycan notation: IUPAC condensed, linker removed
# [1] = molecular target: Fuc(a1-2)[Gal(a1-3)]Gal(b1-4)GlcNAc(b1-2)Man(a1-3)[Fuc(a1-2)[Gal(a1-3)]Gal(b1-4)GlcNAc(b1-2)Man(a1-6)]Man(b1-4)GlcNAc(b1-4)GlcNAc
# Summary of the method: (§1)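 The binding signal is a Z-score computed within each array. Data were drawn from 3228 arrays in the Consortium for Functional Glycomics database, restricted to those with a known protein sequence. Scores were averaged over arrays of the same protein sequence at different concentrations or buffers, and over linkers, and negative values can be taken as non-binding.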
# [2] = molecular target: Fuc(a1-2)[Gal(a1-3)]Gal(b1-4)GlcNAc(b1-2)Man(a1-3)[Fuc(a1-2)[Gal(a1-3)]Gal(b1-4)GlcNAc(b1-2)Man(a1-6)]Man(b1-4)GlcNAc(b1-4)[Fuc(a1-6)]GlcNAc
# Summary of the method: as §1
# [3] = molecular target: Fuc(a1-2)[Gal(a1-3)]Gal(b1-4)GlcNAc(b1-3)GalNAc
# Summary of the method: as §1
# [4] = molecular target: Fuc(a1-2)[Gal(a1-3)]Gal(b1-4)GlcNAc(b1-3)[Fuc(a1-2)[Gal(a1-3)]Gal(b1-4)GlcNAc(b1-6)]GalNAc
# Summary of the method: as §1
# [5] = molecular target: Fuc(a1-2)[Gal(a1-3)]Gal(b1-4)GlcNAc(b1-6)GalNAc
# Summary of the method: as §1
# [6] = molecular target: Fuc(a1-2)[Gal(a1-3)]Gal(b1-4)[Fuc(a1-3)]Glc
# Summary of the method: as §1
# [7] = molecular target: Fuc(a1-2)[Gal(a1-3)]Gal(b1-4)[Fuc(a1-3)]GlcNAc
# Summary of the method: as §1
# [8] = molecular target: Fuc(a1-2)[Gal(a1-3)]Gal(b1-4)[Fuc(a1-3)]GlcNAc(b1-3)GalNAc
# Summary of the method: as §1
# [9] = molecular target: Fuc(a1-2)[Gal(a1-4)]Gal(b1-4)GlcNAc
# Summary of the method: as §1
# [10] = molecular target: Fuc(a1-2)[GalNAc(a1-3)]Gal
# Summary of the method: as §1
# [11] = molecular target: Fuc(a1-2)[GalNAc(a1-3)]Gal(b1-3)GalNAc(a1-3)[Fuc(a1-2)]Gal(b1-4)GlcNAc
# Summary of the method: as §1
# [12] = molecular target: Fuc(a1-2)[GalNAc(a1-3)]Gal(b1-3)GalNAc(b1-3)Gal(a1-4)Gal(b1-4)Glc
# Summary of the method: as §1
# [13] = molecular target: Fuc(a1-2)[GalNAc(a1-3)]Gal(b1-3)GlcNAc
# Summary of the method: as §1
# [14] = molecular target: Fuc(a1-2)[GalNAc(a1-3)]Gal(b1-3)GlcNAc(b1-2)Man(a1-3)[Fuc(a1-2)[GalNAc(a1-3)]Gal(b1-3)GlcNAc(b1-2)Man(a1-6)]Man(b1-4)GlcNAc(b1-4)GlcNAc
# Summary of the method: as §1
# [15] = molecular target: Fuc(a1-2)[GalNAc(a1-3)]Gal(b1-3)GlcNAc(b1-2)Man(a1-3)[Fuc(a1-2)[GalNAc(a1-3)]Gal(b1-3)GlcNAc(b1-2)Man(a1-6)]Man(b1-4)GlcNAc(b1-4)[Fuc(a1-6)]GlcNAc
# Summary of the method: as §1
# [16] = molecular target: Fuc(a1-2)[GalNAc(a1-3)]Gal(b1-3)GlcNAc(b1-3)GalNAc
# Summary of the method: as §1
# [17] = molecular target: Fuc(a1-2)[GalNAc(a1-3)]Gal(b1-3)GlcNAc(b1-6)GalNAc
# Summary of the method: as §1
# [18] = molecular target: Fuc(a1-2)[GalNAc(a1-3)]Gal(b1-4)Glc
# Summary of the method: as §1
# [19] = molecular target: Fuc(a1-2)[GalNAc(a1-3)]Gal(b1-4)GlcNAc
# Summary of the method: as §1
# [20] = molecular target: Fuc(a1-2)[GalNAc(a1-3)]Gal(b1-4)GlcNAc(b1-2)Man
# Summary of the method: as §1
# [21] = molecular target: Fuc(a1-2)[GalNAc(a1-3)]Gal(b1-4)GlcNAc(b1-2)Man(a1-3)[Fuc(a1-2)[GalNAc(a1-3)]Gal(b1-4)GlcNAc(b1-2)Man(a1-6)]Man(b1-4)GlcNAc(b1-4)GlcNAc
# Summary of the method: as §1
# [22] = molecular target: Fuc(a1-2)[GalNAc(a1-3)]Gal(b1-4)GlcNAc(b1-2)Man(a1-3)[Fuc(a1-2)[GalNAc(a1-3)]Gal(b1-4)GlcNAc(b1-2)Man(a1-6)]Man(b1-4)GlcNAc(b1-4)[Fuc(a1-6)]GlcNAc
# Summary of the method: as §1
binder,measurement,setting,value
"InvD YPIII (Yersinia pseudotuberculosis), B1JSC0 (protein) MIKYFSFFKKPEPIVGILPNRQSHHILPTHIRRVAWGTLLLQLFIPLSVSFSPAIAAMKASKADTMVSYSSTEPYVLGSGETVAMVAKKYGITVDELKKINIYRTFSRPFTALTTGDEIDIPRKASPFSVDNNKDNRLSVENTLAGHAVAGATALSNGDVAKSGERMVRSAASNEFNNSAQQWLSQFGTARVQLNINDDFHLDGSAADVLIPLYDNEKSILFTQLGARNKDSRNTVNMGAGVRTFQGNWMYGANTFFDNDLTGKNRRIGVGAEAWTDYLKLSANNYFGITDWHQSRDFIDYNERPANGYDLRAEAYLPSYPQLGGKAMYEKYRGDDVALFGKDNRQKNPHAITAGVNYTPIPLVTIGAEHRAGKGGQNDSNINFQLNYRLGETWQSHIDPSAVAASRTLAGSRYDLVERNNHIVLDYQKQNLVRLSLPDSLAGDPFSQLSVTAQVTATHGLERIDWQSAELMAAGGVLKQTSKNGLEITLPEYQMNRTGGNSYILNAIAYDTQGNASSQASMLITVNAQKINIANSTLVAVPINIEANNSDTSVVTLTLKDDNNIPVTGQDVTFLSPLGTLSAMTDSGNGVYTATLTAGTVSGTTAVSSNINGSALDMTPATVTLNGNSGELSITHSMLVAAPVNIEANGSDTSVVTLTLRDSNNNPVTGQTVTFAGTLGTLGAVTEGSSGVYTATLTAGIMVGTSSITASVNSTALGVTPATVTLNGDSGNLSTTNSTLVAAPVNIEANSSDTSVVTLTLRDNNNNPVTGQTVVFTSTLGTLGNVTEQASGVYTATLTAGTVSGVASLSVSVGGNALGVTPATVTLNGDSGNLSTTNSTLVAAPVNIEANSSDTSVVTLTLRDNNNNPVTGQTVNFAGTLGTLGTVSEGSSGVYTTTLTAGTVAGVASLSVNVGGNALGVTPATVTLNGNSGNLSATNSTLVAAPVNIEANSSDTSVVTLTLRDNNNNPVTGQTVAFTSTLGTLGNVTEQASGVYTATLTAGTVSGVASLSVSVNSNALGVTPATVTLNGDSGNLSTTNSTLVAAPVNIEANSSDTSVVTLTLRDNNNNPVTGQTVAFTSTLGTLGNVTEQASGLYTATLTAGTVSGVASLSVNVGGNALGVTPATVTLNGDSGNLSATNSTLVAAPVNIEANSSDTSVVTLTLRDNNNNPVTGQTVAFTSTLGTLGNVTEQASGLYTATLTAGTVSGVASLSVNVGGTALGVTPATVTLNGDSGNLSTTNSTLVAAPVNIEANSSDTSVVTLTLRDNNNNPVTGQTVAFTSTLGTLGNVTEQASGLYTATLTAGTVSGVASLSVSVNSTALGVTPATVTLNGDSGNLSTTNSTLVAAPVNIEANSSDTSVVTLTLRDNNNNPVTGQTVAFTSTLGTLGNVTEQASGVYTATLTAGTVAGVASLSVNVGGNALGVTPATVTLNGDSGNLSTTNSTLVAAPVNIEANSSDTSVVTLTLRDNNNNPVTGQTVAFTSTLGTLGNVTEQASGVYTATLTAGTVSGVASLSVSVGSSALGVTPATVTLNGDSGNLSTTNSTLVAAPVNIEANNSDTSVVTLTLRDNNNNPVTGQTVAFTSTLGTLGNVTEQASGVYTATLTAGTVSGVASLSVSVNSNALGVTPATVTLNGDSGNLSTTNSTLVAAPVNIEANSSDTSVVTLTLRDNNNNPVTGQTVVFTSTLGTLGNVTEQASGLYTATLTAGTVSGVASLSVSVGGNALGVTGNITLAPGALDAARSILAVNKPSINADDRIGSTITFTAQDAQGNAITGLDIAFMTDLENSQIMTLVDHNDGTYTANINGTQTGIANIAVQSSGATIAGLAATMVTITPGAWNTTQATPVMTVALPITTCQSSSGVYKRYYIGIVTHELYDNYGNEISGILTYNLGAGRYTTVTSQNSSVSGSNGLTRRSNSPVSHFILTSDAYTSQAACYAERIANVNVTITVTAITDDFKTSAVNKVFILGTGSN",glycan array binding signal (z-score),[1],0.059
same,glycan array binding signal (z-score),[2],0.023
same,glycan array binding signal (z-score),[3],-0.321
same,glycan array binding signal (z-score),[4],0.296
same,glycan array binding signal (z-score),[5],-0.233
same,glycan array binding signal (z-score),[6],-0.075
same,glycan array binding signal (z-score),[7],-0.005
same,glycan array binding signal (z-score),[8],-0.204
same,glycan array binding signal (z-score),[9],-0.217
same,glycan array binding signal (z-score),[10],-0.043
same,glycan array binding signal (z-score),[11],-0.299
same,glycan array binding signal (z-score),[12],0.163
same,glycan array binding signal (z-score),[13],-0.31
same,glycan array binding signal (z-score),[14],0.046
same,glycan array binding signal (z-score),[15],0.36
same,glycan array binding signal (z-score),[16],-0.105
same,glycan array binding signal (z-score),[17],-0.25
same,glycan array binding signal (z-score),[18],-0.366
same,glycan array binding signal (z-score),[19],-0.159
same,glycan array binding signal (z-score),[20],-0.271
same,glycan array binding signal (z-score),[21],-0.273
same,glycan array binding signal (z-score),[22],0.113
